The record followed here is PMC6919601, “Identification of Plasmodium dipeptidyl aminopeptidase allosteric inhibitors by high throughput screening” (PLoS ONE, 2019).

Each structure is given as a SMILES string. Values joined by “and” are separate entries in the source; they are usually repeats but may differ in a detail not shown here. Identical values can stand only once. The campaign covered roughly 110,000 compounds. About 230 (0.21%) showed an effect of 50% or more. The list shows a part of the results.
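Further: 30 min substrate incubation versus DMSO and 10 µM JCP410 controls.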

For the assay, the target named is DPAP1 (Plasmodium falciparum, UniProt Q8IIJ9). As to the kind of experiment: primary screen, percent inhibition; read by cleavage of a fluorogenic dipeptide substrate; higher = more effect of the substance. Set-up: species or system P. falciparum D10 trophozoite lysates; single well.
Chain of DPAP1 (Q8IIJ9 whole entry, looked up): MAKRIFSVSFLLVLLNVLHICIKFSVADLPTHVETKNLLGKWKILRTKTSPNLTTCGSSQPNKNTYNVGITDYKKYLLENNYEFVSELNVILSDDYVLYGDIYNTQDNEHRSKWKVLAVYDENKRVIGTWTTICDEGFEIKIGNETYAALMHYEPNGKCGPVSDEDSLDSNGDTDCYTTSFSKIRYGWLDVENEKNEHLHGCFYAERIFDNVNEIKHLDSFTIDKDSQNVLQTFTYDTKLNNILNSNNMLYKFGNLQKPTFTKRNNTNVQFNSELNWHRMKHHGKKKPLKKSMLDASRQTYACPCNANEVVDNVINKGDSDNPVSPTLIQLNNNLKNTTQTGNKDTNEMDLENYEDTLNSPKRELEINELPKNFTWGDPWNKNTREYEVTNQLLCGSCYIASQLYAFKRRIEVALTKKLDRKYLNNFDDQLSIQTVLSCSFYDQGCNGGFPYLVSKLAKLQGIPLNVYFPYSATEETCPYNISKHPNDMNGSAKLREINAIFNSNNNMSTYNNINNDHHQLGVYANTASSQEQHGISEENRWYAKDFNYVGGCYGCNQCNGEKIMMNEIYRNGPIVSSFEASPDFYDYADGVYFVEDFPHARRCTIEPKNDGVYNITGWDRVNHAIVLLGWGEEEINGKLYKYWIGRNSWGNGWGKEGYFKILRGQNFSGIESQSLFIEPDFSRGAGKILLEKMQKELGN
Consider `COCCN1C=C(C(=O)OC)C(c2cccc(Oc3ccccc3)c2)C(C(=O)OC)=C1`, for which the “% Inhibition @ 10 uM” value is reported as 3.93%. The figure for `CCc1ccc(/C=C2\C(=N)N3N=C(N4CCOCC4)SC3=NC2=O)cc1` is 28%; for `COc1ccc(C2CC(C(F)(F)F)n3ncc(C(=O)NC(C)C)c3N2)cc1` (stereo not shown) it is -9.3%.

Turning to `Cc1ccc(CC2C(=O)N(CC(=O)O)C(=O)C2C)cc1` (stereo not shown), the “% Inhibition @ 10 uM” value is 3.59%. On to `COc1ccc(CNC(=O)CCc2c(C)c3cc4c(C)coc4cc3oc2=O)cc1OC`, for which the “% Inhibition @ 10 uM” value is recorded as -0.808%. On to `CCOC(=O)N1CCN(C/C=C/c2ccc(N(C)C)cc2)CC1`, for which the “% Inhibition @ 10 uM” value was -11.2%. The figure for `COc1ccc(Br)cc1CNCc1cccs1` is 2.02%; for `CCN(CC)S(=O)(=O)c1nnc(NC(=O)COc2ccc(OC)cc2)s1` it is -3.51%; for `COc1ccc2c(c1OC)C(=O)N(c1cccc(F)c1)C2` it is -2.03%.

For `COCCCNC(=O)C1Sc2nnc(C)n2NC1c1ccccc1` (stereo not shown), the “% Inhibition @ 10 uM” value is listed as -3.53%.

On to `CC1=[N+]([O-])C(C)(C)C(c2ccc(Cl)cc2)=[N+]1[O-]`, for which the “% Inhibition @ 10 uM” value was -7.23%. The figure for `Cc1ccc(C2C(C#N)=C(N)Oc3cc(N)ccc32)cc1` (stereo not shown) is -4.76%; for `CC(=O)Nc1sc2c(c1C(=O)Nc1cccc3ccccc13)CCC(C)C2` (stereo not shown) it is 1.67%; for `COC(=O)c1sccc1NC(=O)Cn1c(-c2nonc2N)nc2ccccc21` it is 0.0289%. Turning to `COc1cccc(NC(=O)CN(c2cc(OC)ccc2OC)S(C)(=O)=O)c1`, the “% Inhibition @ 10 uM” value is 1.92% and -1.37%. The figure for `CN1C(=O)/C(=C\c2cccc(OC(=O)c3ccco3)c2)SC1=S` is -0.582%; for `CC(=O)N/C(=C\c1ccccc1)C(=O)NC(CCC(=O)O)C(=O)O` (stereo not shown) it is 2.38%. The figure for `COc1ccc(CC(=O)N2CCN(c3ccc(F)cc3)CC2)cc1` is 4.22%; for `C=CCOc1cccc(/C=C2/Sc3ccccc3C2=O)c1` it is -0.996%. Turning to `CCc1nnc(SCC(=O)NCc2ccc(C)cc2)c2cc3sccc3n12`, the “% Inhibition @ 10 uM” value is -0.232%. Consider `Cc1cc(C)n(-c2cc(N3CCOCC3)nc(C)n2)n1`, for which the “% Inhibition @ 10 uM” value stood at 5.73%.

For `COCCCNC(=O)c1cc2c(s1)-c1ccc(Cl)cc1SC2`, the “% Inhibition @ 10 uM” value is -0.72%. The same measure for `Fc1ccccc1OCCCCN1CCOCC1`: -2.12%; for `COc1cccc(-n2c(SCC(=O)NC3CCCCC3)nc3nnc(C)c-3c2N)c1`: 4.35%. The same measure for `Nc1ccc(-c2cc(-c3ccccc3)nc(-c3ccc(N)cc3)n2)cc1`: -1.74%. The same measure for `O=C(CSc1nnc(-c2cccnc2)n1Cc1ccccc1)c1c[nH]c2ccccc12`: -3.21%; for `CC(C)(C)c1ccc(S(=O)(=O)NCc2ccc(C(=O)Nc3cccnc3)cc2)cc1`: 4.11%; for `O=[N+]([O-])c1ccc(/C=C/c2nnnn2-c2ccc([N+](=O)[O-])cc2)cc1`: -2.03%. With `CCCCC(=O)Nc1ccc(OCC)cc1`, the “% Inhibition @ 10 uM” value was 2.5%. The figure for `COc1ccc(CCNC(=O)c2cn(C)c(=O)c3cc(OC)c(OC)cc23)cc1OC` is -2.49%; for `CCOC(=O)c1oc2ccccc2c1NC(=O)C1c2ccccc2Oc2ccccc21` it is -4.69%. The figure for `Cc1cc(NC(=O)CCCc2c[nH]c3ccccc23)no1` is 1.88%; for `Cc1ccc2[nH]c(SCC(=O)NC3CCCCC3)nc2c1` it is 1.87%; for `CC(=O)/N=C(\Nc1nc(C)cc(C)n1)Nc1ccc(Cl)cc1Cl` it is -5.66%.

Regarding `Cc1ccccc1C(=O)Nc1cccc(-c2cn3ccsc3n2)c1`, the “% Inhibition @ 10 uM” value stood at 3.05%. The same measure for `CCOc1cc(CO)ccc1OCc1ccc(C(=O)O)cc1`: -1.43%; for `CCOC(=O)c1cc2c(C)nc3ccc(OC)cc3c2o1`: 1.08%. Turning to `Cc1ccc2nc(NC(=O)CCNS(=O)(=O)c3ccc4nc(O)ccc4c3)sc2c1`, the “% Inhibition @ 10 uM” value is reported as 3.51%.

Turning to `Cc1cc(Cl)ccc1OCCCC(=O)NC1=NCCS1`, the “% Inhibition @ 10 uM” value is listed as -4.59%.

`O=C(N1CCCCC1)C(O)(c1ccccc1)c1ccccc1`: the “% Inhibition @ 10 uM” value is listed as -0.687%. As to `COc1cc(/C=c2\sc3n(c2=O)CCCN=3)cc(OC)c1O`, the “% Inhibition @ 10 uM” value is recorded as -1.29%. As to `Cc1nc2ccc(S(=O)(=O)N(C)CC(=O)NC3CCCc4ccccc43)cc2s1` (stereo not shown), the “% Inhibition @ 10 uM” value is on record as -0.522%. Consider `CCOC(=O)c1c(C)[nH]c(C)c1S(=O)(=O)N(C)CC(=O)N1CCn2c1nc1ccccc12`, for which the “% Inhibition @ 10 uM” value stood at 0.706%.

Turning to `CC1(C)CC2=Nc3nn(-c4ccccc4)c(O)c3C(c3ccco3)C2=C(O)C1` (stereo not shown), the “% Inhibition @ 10 uM” value is given as -0.828%. On to `Cc1cc(C(F)(F)F)c(C#N)c(SCC(=O)c2ccccc2)n1`, for which the “% Inhibition @ 10 uM” value is listed as 1.4%. The same measure for `CCOC(=O)c1c(NC(=O)COc2ccc3ccccc3c2)sc2c1CCCC2`: 3.66%; for `CCOC(=O)C1CCCCN1CCCc1ccccc1` (stereo not shown): -1.21%; for `O=C(COc1ccc(Cl)cc1)Nc1cccnc1`: -2.29%. Regarding `CCOc1cc(CN2CCCC2)ccc1OC`, the “% Inhibition @ 10 uM” value was -5.42%. `CCOc1ccc(CNCc2c(C(=O)O)n(Cc3ccc(F)cc3)c3cc(C)ccc23)cc1`: the “% Inhibition @ 10 uM” value is -3.56%. The same measure for `CN(CCCNC(=O)c1cc(S(=O)(=O)N2CCCCC2)c[nH]1)Cc1ccccc1`: 5.43%; for `O=C(O)C1Sc2nc(O)sc2C2c3ccccc3OC(=O)C12` (stereo not shown): 5.17%. The same measure for `CCCNC(=O)c1ccc2c(c1)C(=O)N(Cc1ccco1)C2=O`: 4.01%; for `COc1cccc2c1Oc1ncccc1N(c1ccc(C(=O)NCc3ccc4c(c3)OCO4)s1)C2`: -0.836%. The same measure for `CCOc1ccccc1N(CC(=O)NC1CC2CCC1C2)S(=O)(=O)c1ccc(C)cc1` (stereo not shown): -2.54%. Consider `COc1ccc(OC)c(-c2cc(C(=O)O)c3c(-c4ccc(Cl)cc4)[nH]nc3n2)c1`, for which the “% Inhibition @ 10 uM” value was determined as 3%. The same measure for `COc1ccc(S(=O)(=O)Nc2ccc(S(=O)(=O)Nc3ccc(Cl)cc3)cc2)cc1C`: -4.62%; for `N#Cc1cc2c(nc1S)CCCC2`: 32.9%. The figure for `Cc1ccc(OCCOc2ccc(Oc3nc(N(C)C)nc(N(C)C)n3)nn2)cc1` is 0.147%. On to `CN1C(C(=O)NC2CCCCC2)=CC(c2cccs2)=NS1(=O)=O`, for which the “% Inhibition @ 10 uM” value turned out to be 0.655%. As to `CCOC(=O)C1CCCCN1Cc1cccc(C(F)(F)F)c1` (stereo not shown), the “% Inhibition @ 10 uM” value was -0.192%. With `O=C1C2C3CCC(O3)C2C(=O)N1c1ccc2nc3ccccc3cc2c1` (stereo not shown), the “% Inhibition @ 10 uM” value is -0.999%.

With `CCOC(=O)C1CCCN(CC2CC=CCC2)C1` (stereo not shown), the “% Inhibition @ 10 uM” value is listed as -5.42%. As for `C=Cn1ccnc1C(C(O)c1cc(OC)c(OC)c(OC)c1)N(C)C` (stereo not shown), the “% Inhibition @ 10 uM” value is on record as -3.39%.
